Measured values from paper PMC7387497, “Structural analysis of 70S ribosomes by cross-linking/mass spectrometry reveals conformational plasticity” (Scientific Reports, 2020).

How the values were obtained:
Experiment in all cases: cross-linking; DSAU (amine-reactive, MS-cleavable; 1 µL of 5 mM stock to 49 µL) with 1.33 µM purchased E. coli 70S ribosome in 20 mM HEPES pH 7.6, 10 mM MgAc2, 30 mM KCl, 2 mM TCEP; 60 min at room temperature; tryptic digest, LC/MS/MS, MeroX search, 1% FDR
Details in all cases: both partners purified
L33 protein = L33 protein (E. coli, UniProt P0A7N9)
30S protein S1 = 30S protein S1 (E. coli, UniProt P0AG67)
L9 protein = L9 protein (E. coli, UniProt P0A7R1)

Measured: binding result

B1: ribosomal protein L1 (natural protein)
chain: not shown
notes: 50S ribosomal protein L1, E. coli, as part of the purchased 70S ribosome (protein of the L1 stalk); source: bought: New England Biolabs, E. coli ribosome (cat. no. P0763S20 as printed)
binds: all assays above
